Laboratory results published in PubChem BioAssay AID1240 (Sanford-Burnham Center for Chemical Genomics, 2008).
Out of some 50,000 compounds screened, about 800 (1.6%) showed an effect of 50% or more. Some of the results follow.

Biological target: Bcl-2-like protein 10 (Homo sapiens) (UniProt Q9HD36)
Assay: TR3 peptide-Bcl-B binding displacers, biochemical primary FP assay, phenotype converters (AID 1240);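 note: 0% = Bcl-B with tracer peptide and DMSO and 100% = tracer peptide lacking Bcl-B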
Conditions: GST-Bcl-B / FITC-TR3 peptide fluorescence polarization; stronger effect = higher value; compound at 3.75 mg/L

Sequence of UniProt Q9HD36 (Q9HD36 whole entry, looked up): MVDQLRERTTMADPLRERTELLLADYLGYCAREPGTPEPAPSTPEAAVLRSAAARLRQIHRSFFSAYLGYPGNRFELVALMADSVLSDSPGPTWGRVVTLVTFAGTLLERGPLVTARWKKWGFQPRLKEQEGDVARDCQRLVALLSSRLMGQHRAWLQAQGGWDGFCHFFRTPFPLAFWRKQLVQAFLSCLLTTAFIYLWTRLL

Row | Structure (SMILES) | displacement [%]
1 | Cc1ccc(NC2CC(C)N(C(=O)c3ccc(F)cc3)c3ccc(C)cc32)cc1 (centres undefined) | -3.3
2 | O=C(O)c1ccc(S(=O)(=O)c2ccc3c(c2)C(=O)N(c2ccccc2[N+](=O)[O-])C3=O)cc1 | 2.2
3 | CCOC(=O)C1=NNC(C(=O)OCC)(C(=O)OCC)C1c1ccccc1 (centres undefined) | -2.6
4 | Cc1ccc(SCC(=O)Nc2ccccc2Br)cc1 | 8.5
5 | O=C(Nc1ccc(Cl)c([N+](=O)[O-])c1)C1CC2CCC1C2 (centres undefined) | 4.4
6 | Cc1cc2c(cc1C)N(C(=O)CSc1nc3ccccc3o1)C(C)(C)c1ssc(=S)c1-2 | 2.7
7 | COc1ccc(CCNC(=O)c2cccc([N+](=O)[O-])c2)cc1 | -10.8
8 | O=C(Nc1cccc(Cl)c1)Nc1nnc(-c2ccccc2F)s1 | 2.8
9 | O=C(CCCN1C(=O)/C(=C\c2ccc(F)cc2)SC1=S)Nc1cc([N+](=O)[O-])ccc1O | 114
10 | CC(C)(C)NCCOc1ccc(Cl)cc1 | 15.6
11 | CN(Cc1ccccc1)C(=O)c1cc(Cl)ccc1Cl | 12.7
12 | COc1ccc(CN(CCC(c2ccc(OC)cc2)C2CCOC(C)(C)C2)C(C)=O)cc1 (centres undefined) | -6.3
13 | OCCSc1nncn1/N=C/c1c[nH]c2ccccc12 | 0.4
14 | CCCOc1ccc(N/C=C/C(=O)c2ccc(Br)cc2)cc1 | -8.3
15 | COc1ccc(C(=O)NC(C)Cc2ccccc2)cc1OC (centres undefined) | -9.3
16 | Nc1ccccc1-c1nc2ccccc2c2nc3ccccc3n12 | -5.9
17 | O=C(/C=C/c1cccc2ccccc12)c1ccncc1 | -6.2
18 | Cc1cc(/C=C2\SC(=S)NC2=O)c(C)n1-c1cccc([N+](=O)[O-])c1 | 7.1
19 | COc1cc(C(=O)NN2C(=O)/C(=C/c3ccc(N(C)C)cc3)SC2=S)ccc1O | -56.7
20 | CCC(C)NC(=O)c1c(Cl)ccc(Cl)c1OC (centres undefined) | -2.8
21 | O=C/C(=C\Nc1c2ccccc2nc2ccccc12)c1nc2cc(Cl)ccc2o1 | 11.1
22 | C#CCOc1ccc(/C=C2\C(=O)NC(=O)N(c3ccc(Cl)cc3)C2=O)cc1 | 0
23 | Cc1onc(-c2c(F)cccc2Cl)c1C(=O)NCc1ccccn1 | -5.5

Row | Structure (SMILES) | displacement [%]
24 | Cc1ccc(-c2cc(C(=O)N/N=C/c3cccs3)[nH]n2)cc1 | -10.1
25 | Oc1ccccc1C(=S)N1N=C(c2ccccc2)CC1(O)C(F)(F)F (centres undefined) | 21.7
26 | O=C(Nc1nc(-c2ccc(Cl)cc2)cs1)C(F)(F)F | 14
27 | CCOC(=O)c1ccc(NC(=O)C2CC(=O)N(c3ccc(Br)cc3)C2)cc1 (centres undefined) | -2.3
28 | CN(C(=O)c1ccc(C(=O)N(C)c2ccc(O)cc2)cc1)c1ccc(O)cc1 | 5.7
29 | CC(=O)CCc1oc2ccccc2c1-c1ccc(C)o1 | -3.7
30 | CN1C(=O)/C(=C\c2ccc(OCc3cccc4ccccc34)cc2)SC1=S | -0.8
31 | CC(=O)Oc1ccccc1-c1nc2s/c(=C/c3ccco3)c(=O)n2n1 | 13.1
32 | COc1cc(C2C(C(C)=O)=C(O)C(=O)N2CCN(C)C)ccc1O (centres undefined) | -6.1
33 | O=C(CSc1nc(-c2ccccc2)c(-c2ccccc2)o1)Nc1nccs1 | 106
34 | CCC1CCc2c(sc(NC(=O)c3cnccn3)c2C(N)=O)C1 (centres undefined) | -16.3
35 | CCOC(=O)Cc1nnc(NCc2ccccc2)c2ccccc12 | 3
36 | O=C(Cc1ccccc1)Nc1ccccc1C(=O)N1CCN(Cc2ccccc2)CC1 | 4.8
37 | O=c1[nH]cnc2c1cnn2CCOc1ccccc1 | -0.6
38 | Cc1ccc(NC(=O)c2cccc(C)c2)nc1 | -1.3
39 | CC(=O)Nc1ncc(Cc2ccc(F)cc2)s1 | 6.6
40 | COc1cc(C(C)(C)C)cc(Br)c1O | 2
41 | COc1ccc(-n2c(CN3C(=O)c4ccccc4C3=O)nc3ccccc3c2=O)cc1 | -3.7
42 | COc1ccc(CC(=O)Nc2cccc(NC(=O)c3cccc(Cl)c3)c2)cc1OC | -0.7
43 | COc1cccc(OCCOc2ccc(/C=C3/SC(=S)N(c4ccccc4)C3=O)cc2)c1 | 1.9
44 | CC(=O)Oc1ccc(C(=O)Nc2ccc(C)cc2C(=O)O)cc1 | 7
45 | O=C(NCCO)C(=O)NCCc1ccccc1 | 7.8
46 | Cc1ccc2nc(NCc3ccccc3)nc(-c3ccccc3)c2c1 | -0.2

Row | Structure (SMILES) | displacement [%]
47 | CCOc1cc(/C=C2/SC(=S)N(C)C2=O)ccc1OCc1cccc2ccccc12 | -6.7
48 | C(=N\Nc1nc(N2CCOCC2)nc(N2CCOCC2)n1)/c1ccccc1OCc1ccccc1 | -0.9
49 | COC(=O)c1ccccc1NC(=O)CN(c1cccc(Cl)c1)S(C)(=O)=O | 5.5
50 | O=C(N/N=C/c1ccc(Cl)cc1)c1cc(-c2ccc3ccccc3c2)n[nH]1 | -5.4
51 | CC(=O)Nc1ccc(S(=O)(=O)Nc2cccc(C)c2C)cc1 | 12.9
52 | C=CCc1cc(/C=C2\C(=O)NC(=O)N(c3cc(C)cc(C)c3)C2=O)cc(OC)c1OC | -11.9
53 | COc1cccc(CN2CCN(Cc3ccccn3)CC2)c1OC | -2.1
54 | COc1ccc(C2CC(C(F)(F)F)n3nc(C(=O)N4CCN(c5ccc(F)cc5)CC4)c(Cl)c3N2)cc1 (centres undefined) | 17.2
55 | COc1cc(NC(=O)CCC(=O)O)nc(OC)n1 | 3.7
56 | NS(=O)(=O)c1cccc(S(=O)(=O)c2cccc(S(N)(=O)=O)c2)c1 | -12.7
57 | CCC1=NN(C(=O)c2ccc(Cl)cc2)C(O)(c2ccc(Br)cc2)C1 (centres undefined) | 9.1
58 | CCOC(=O)C1=C(c2ccccc2)OC(N)=C(C#N)C1c1cccs1 (centres undefined) | 8.7
59 | COc1ccc2c(c1)c(=O)oc1c(C)c(OC(C)=O)ccc12 | -7.1
60 | O=C(Nc1ccccn1)c1ccc(CN(c2ccccc2)S(=O)(=O)c2ccccc2)cc1 | -4.3
61 | O=C(c1nn2c(C(F)(F)F)cc(-c3ccco3)nc2c1Cl)N1CCOCC1 | 10.6
62 | Cc1cc(/C=N/NC(=O)Cc2cccc(C(F)(F)F)c2)c(C)n1-c1cccc(C(=O)O)c1 | -4.6
63 | NC(=O)C1CCN(C(=O)c2cccc(I)c2)CC1 | 7.3
64 | COC(=O)C1=NNC2(C)C(=O)N(c3ccccc3Cl)C(=O)C12 (centres undefined) | -9.7
65 | CCOC(=O)C1=C(C)N=c2s/c(=C\c3ccc(C(C)=O)cc3)c(=O)n2C1c1ccccc1 (centres undefined) | 76.2
66 | Clc1ccccc1-c1nc2ccccc2c2nc3ccccc3n12 | 9.7
67 | CC1(C)CC(=O)C(/C=N/c2ncc(C(F)(F)F)cc2Cl)=C(O)C1 | -1.7
68 | CC(COc1ccccc1)NC(=O)c1nn2c(C(F)(F)F)cc(-c3ccccc3)nc2c1Br (centres undefined) | 14.1
69 | CC1(C)C(=O)NC(=O)N1CN1C(=O)NC(=O)C1(C)C | -0.9
